Laboratory results taken from patent US20250101135A1 (Hoffmann-La Roche, published 2025).

What was measured:
[1] = target: T1, human 4-1BB (CD137) on cells (human, UniProt Q07011 24-255); assay: cell-based or functional assay
[2] = target: T1, human 4-1BB (CD137) on cells; assay: flow cytometry on activated human PBMC, 4-1BB+ CD4+ T cells
[3] = target: T1, human 4-1BB (CD137) on cells; assay: flow cytometry on activated human PBMC, 4-1BB+ CD8+ T cells
human NA3B3A2-avi-His = target: T2, human NA3B3A2-avi-His (human); assay: SPR (Biacore T200), simultaneous binding: construct held on immobilized human 4-1BB Fc(kih), human NA3B3A2-avi-His injected as analyte 2 at 500 nM
T2 construct: hybrid antigen with avi and His tags; also called hu NA3B3A2
T2 chain: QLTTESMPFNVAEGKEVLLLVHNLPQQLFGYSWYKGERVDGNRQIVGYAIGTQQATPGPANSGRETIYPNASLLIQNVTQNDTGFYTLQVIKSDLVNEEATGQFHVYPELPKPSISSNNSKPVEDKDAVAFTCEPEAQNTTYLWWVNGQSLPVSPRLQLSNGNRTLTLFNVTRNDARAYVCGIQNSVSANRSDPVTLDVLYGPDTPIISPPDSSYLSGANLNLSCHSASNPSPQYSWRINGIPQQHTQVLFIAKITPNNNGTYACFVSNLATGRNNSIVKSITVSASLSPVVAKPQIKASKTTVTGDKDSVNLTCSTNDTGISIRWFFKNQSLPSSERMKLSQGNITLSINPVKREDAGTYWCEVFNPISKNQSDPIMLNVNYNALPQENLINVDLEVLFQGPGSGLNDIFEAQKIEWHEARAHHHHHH

[4] = target: T1, human 4-1BB (CD137) on cells; assay: flow cytometry on activated human PBMC, 4-1BB+ CD4+ T cells; remark: listed apart in the source
[5] = target: T1, human 4-1BB (CD137) on cells; assay: flow cytometry on activated human PBMC, 4-1BB+ CD8+ T cells; remark: listed apart in the source
[6] = target: T3, human fibroblast activation protein (FAP) on cells (human, UniProt Q12884 1-760); assay: flow cytometry, FAP-expressing MV-3 cells, PE anti-human IgG Fc secondary
T3 construct: also called human FAP; huFAP

[7] = target: T3, human fibroblast activation protein …; assay: flow cytometry, FAP-expressing WM-266-4 cells, PE anti-human IgG Fc secondary
[8] = target: T4, human CD19 (recombinant, form not given) (human, UniProt P15391 20-291, limits assumed); assay: SPR Biacore T200, biotinylated human 4-1BB Fc(kih) on SA chip, construct 200 nM then human CD19 500 nM
T4 construct: also called huCD19
T4 sequence (looked up): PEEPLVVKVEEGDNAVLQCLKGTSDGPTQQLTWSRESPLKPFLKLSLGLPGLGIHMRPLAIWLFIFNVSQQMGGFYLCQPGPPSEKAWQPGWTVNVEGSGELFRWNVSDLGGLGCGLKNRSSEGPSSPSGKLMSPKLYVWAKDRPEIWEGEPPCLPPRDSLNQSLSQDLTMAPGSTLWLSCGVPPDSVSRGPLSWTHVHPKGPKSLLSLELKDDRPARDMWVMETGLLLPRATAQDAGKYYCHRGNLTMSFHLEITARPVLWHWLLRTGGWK

B1: bivalent CEA(T84.66) targeted split trimeric 4-1BB ligand (71-254) Fc (kih) PGLALA fusion (construct 5.8) (Fc fusion)
heavy 1: EVQLQQSGAELVEPGASVKLSCTASGFNIKDTYMHWVKQRPEQGLEWIGRIDPANGNSKYVPKFQGKATITADTSSNTAYLQLTSLTSEDTAVYYCAPFGYYVSDYAMAYWGQGTSVTVSSASTKGPSVFPLAPSSKSTSGGTAALGCLVKDYFPEPVTVSWNSGALTSGVHTFPAVLQSSGLYSLSSVVTVPSSSLGTQTYICNVNHKPSNTKVDKKVEPKSCDKTHTCPPCPAPEAAGGPSVFLFPPKPKDTLMISRTPEVTCVVVDVSHEDPEVKFNWYVDGVEVHNAKTKPREEQYNSTYRVVSVLTVLHQDWLNGKEYKCKVSNKALGAPIEKTISKAKGQPREPQVCTLPPSRDELTKNQVSLSCAVKGFYPSDIAVEWESNGQPENNYKTTPPVLDSDGSFFLVSKLTVDKSRWQQGNVFSCSVMHEALHNHYTQKSLSLSPGGGGGSGGGGSREGPELSPDDPAGLLDLRQGMFAQLVAQNVLLIDGPLSWYSDPGLAGVSLTGGLSYKEDTKELVVAKAGVYYVFFQLELRRVVAGEGSGSVSLALHLQPLRSAAGAAALALTVDLPPASSEARNSAFGFQGRLLHLSAGQRLGVHLHTEARARHAWQLTQGATVLGLFRVTPEIPAGLPSPRSEGGGGSGGGGSREGPELSPDDPAGLLDLRQGMFAQLVAQNVLLIDGPLSWYSDPGLAGVSLTGGLSYKEDTKELVVAKAGVYYVFFQLELRRVVAGEGSGSVSLALHLQPLRSAAGAAALALTVDLPPASSEARNSAFGFQGRLLHLSAGQRLGVHLHTEARARHAWQLTQGATVLGLFRVTPEIPAGLPSPRSE
heavy 2: EVQLQQSGAELVEPGASVKLSCTASGFNIKDTYMHWVKQRPEQGLEWIGRIDPANGNSKYVPKFQGKATITADTSSNTAYLQLTSLTSEDTAVYYCAPFGYYVSDYAMAYWGQGTSVTVSSASTKGPSVFPLAPSSKSTSGGTAALGCLVKDYFPEPVTVSWNSGALTSGVHTFPAVLQSSGLYSLSSVVTVPSSSLGTQTYICNVNHKPSNTKVDKKV[no letters for human IgG1 Fc with changes]GGGGSGGGGSREGPELSPDDPAGLLDLRQGMFAQLVAQNVLLIDGPLSWYSDPGLAGVSLTGGLSYKEDTKELVVAKAGVYYVFFQLELRRVVAGEGSGSVSLALHLQPLRSAAGAAALALTVDLPPASSEARNSAFGFQGRLLHLSAGQRLGVHLHTEARARHAWQLTQGATVLGLFRVTPEIPAGLPSPRSE
light: DIVLTQSPASLAVSLGQRATMSCRAGESVDIFGVGFLHWYQQKPGQPPKLLIYRASNLESGIPVRFSGTGSRTDFTLIIDPVEADDVATYYCQQTNEDPYTFGGGTKLEIKRTVAAPSVFIFPPSDEQLKSGTASVVCLLNNFYPREAKVQWKVDNALQSGNSQESVTEQDSKDSTYSLSSTLTLSKADYEKHKVYACEVTHQGLSSPVTKSFNRGEC
In the case of B1, the “EC50 [nM] of NF-kB-luciferase activation, human 4-1BB HeLa reporter cells with MKN-45 cells” value [1] is reported as 0.45 nM, the “EC50 [nM] of NF-kB-luciferase activation, human 4-1BB HeLa reporter cells, no tumor cells” value [1] is reported as 1.52 nM and the EC50 [2] is reported as 380 pM. The EC50 [3] was 170 pM and the binding result (human NA3B3A2-avi-His) was “binds”.

B2: bivalent FAP(4B9)-targeted human 4-1BB ligand (71-248) containing Fc (kih) fusion molecule Construct 2.6 (Fc fusion)
heavy 1: EVQLLESGGGLVQPGGSLRLSCAASGFTFSSYAMSWVRQAPGKGLEWVSAIIGSGASTYYADSVKGRFTISRDNSKNTLYLQMNSLRAEDTAVYYCAKGWFGGFNYWGQGTLVTVSSASTKGPSVFPLAPSSKSTSGGTAALGCLVKDYFPEPVTVSWNSGALTSGVHTFPAVLQSSGLYSLSSVVTVPSSSLGTQTYICNVNHKPSNTKVDKKVEPKSCDKTHTCPPCPAPEAAGGPSVFLFPPKPKDTLMISRTPEVTCVVVDVSHEDPEVKFNWYVDGVEVHNAKTKPREEQYNSTYRVVSVLTVLHQDWLNGKEYKCKVSNKALGAPIEKTISKAKGQPREPQVCTLPPSRDELTKNQVSLSCAVKGFYPSDIAVEWESNGQPENNYKTTPPVLDSDGSFFLVSKLTVDKSRWQQGNVFSCSVMHEALHNHYTQKSLSLSPGGGGGSGGGGSREGPELSPDDPAGLLDLRQGMFAQLVAQNVLLIDGPLSWYSDPGLAGVSLTGGLSYKEDTKELVVAKAGVYYVFFQLELRRVVAGEGSGSVSLALHLQPLRSAAGAAALALTVDLPPASSEARNSAFGFQGRLLHLSAGQRLGVHLHTEARARHAWQLTQGATVLGLFRVTPEIPAGLGGGGSGGGGSREGPELSPDDPAGLLDLRQGMFAQLVAQNVLLIDGPLSWYSDPGLAGVSLTGGLSYKEDTKELVVAKAGVYYVFFQLELRRVVAGEGSGSVSLALHLQPLRSAAGAAALALTVDLPPASSEARNSAFGFQGRLLHLSAGQRLGVHLHTEARARHAWQLTQGATVLGLFRVTPEIPAGL
heavy 2: EVQLLESGGGLVQPGGSLRLSCAASGFTFSSYAMSWVRQAPGKGLEWVSAIIGSGASTYYADSVKGRFTISRDNSKNTLYLQMNSLRAEDTAVYYCAKGWFGGFNYWGQGTLVTVSSASTKGPSVFPLAPSSKSTSGGTAALGCLVKDYFPEPVTVSWNSGALTSGVHTFPAVLQSSGLYSLSSVVTVPSSSLGTQTYICNVNHKPSNTKVDKKV[no letters for human IgG1 Fc with changes]GGGGSGGGGSREGPELSPDDPAGLLDLRQGMFAQLVAQNVLLIDGPLSWYSDPGLAGVSLTGGLSYKEDTKELVVAKAGVYYVFFQLELRRVVAGEGSGSVSLALHLQPLRSAAGAAALALTVDLPPASSEARNSAFGFQGRLLHLSAGQRLGVHLHTEARARHAWQLTQGATVLGLFRVTPEIPAGL
light: EIVLTQSPGTLSLSPGERATLSCRASQSVTSSYLAWYQQKPGQAPRLLINVGSRRATGIPDRFSGSGSGTDFTLTISRLEPEDFAVYYCQQGIMLPPTFGQGTKVEIKRTVAAPSVFIFPPSDEQLKSGTASVVCLLNNFYPREAKVQWKVDNALQSGNSQESVTEQDSKDSTYSLSSTLTLSKADYEKHKVYACEVTHQGLSSPVTKSFNRGEC
In the case of B2, the EC50 [4] is reported as 240 pM, the EC50 [5] is reported as 330 pM and the “EC50 (read off the curve)” value [6] is reported as ~600 pM. For the same binder, the “EC50 (read off the curve)” value [7] was ~400 pM.

B3: monovalent CD19(8B8-2B11) targeted split trimeric 4-1BB ligand (71-248) Fc (kih) fusion containing CH-CL cross with charged residues (construct 4.4) (Fc fusion)
chain 1: REGPELSPDDPAGLLDLRQGMFAQLVAQNVLLIDGPLSWYSDPGLAGVSLTGGLSYKEDTKELVVAKAGVYYVFFQLELRRVVAGEGSGSVSLALHLQPLRSAAGAAALALTVDLPPASSEARNSAFGFQGRLLHLSAGQRLGVHLHTEARARHAWQLTQGATVLGLFRVTPEIPAGLGGGGSGGGGSREGPELSPDDPAGLLDLRQGMFAQLVAQNVLLIDGPLSWYSDPGLAGVSLTGGLSYKEDTKELVVAKAGVYYVFFQLELRRVVAGEGSGSVSLALHLQPLRSAAGAAALALTVDLPPASSEARNSAFGFQGRLLHLSAGQRLGVHLHTEARARHAWQLTQGATVLGLFRVTPEIPAGLGGGGSGGGGSRTVAAPSVFIFPPSDRKLKSGTASVVCLLNNFYPREAKVQWKVDNALQSGNSQESVTEQDSKDSTYSLSSTLTLSKADYEKHKVYACEVTHQGLSSPVTKSFNRGE[no letters for human IgG1 Fc with changes]
chain 2: REGPELSPDDPAGLLDLRQGMFAQLVAQNVLLIDGPLSWYSDPGLAGVSLTGGLSYKEDTKELVVAKAGVYYVFFQLELRRVVAGEGSGSVSLALHLQPLRSAAGAAALALTVDLPPASSEARNSAFGFQGRLLHLSAGQRLGVHLHTEARARHAWQLTQGATVLGLFRVTPEIPAGLGGGGSGGGGSASTKGPSVFPLAPSSKSTSGGTAALGCLVEDYFPEPVTVSWNSGALTSGVHTFPAVLQSSGLYSLSSVVTVPSSSLGTQTYICNVNHKPSNTKVDEKVEPKSC
heavy: QVQLVQSGAEVKKPGASVKVSCKASGYTFTDYIMHWVRQAPGQGLEWMGYINPYNDGSKYTEKFQGRVTMTSDTSISTAYMELSRLRSDDTAVYYCARGTYYYGPQLFDYWGQGTTVTVSSASTKGPSVFPLAPSSKSTSGGTAALGCLVKDYFPEPVTVSWNSGALTSGVHTFPAVLQSSGLYSLSSVVTVPSSSLGTQTYICNVNHKPSNTKVDKKVEPKSCDKTHTCPPCPAPEAAGGPSVFLFPPKPKDTLMISRTPEVTCVVVDVSHEDPEVKFNWYVDGVEVHNAKTKPREEQYNSTYRVVSVLTVLHQDWLNGKEYKCKVSNKALGAPIEKTISKAKGQPREPQVCTLPPSRDELTKNQVSLSCAVKGFYPSDIAVEWESNGQPENNYKTTPPVLDSDGSFFLVSKLTVDKSRWQQGNVFSCSVMHEALHNHYTQKSLSLSPGK
light: DIVMTQTPLSLSVTPGQPASISCKSSQSLETSTGTTYLNWYLQKPGQSPQLLIYRVSKRFSGVPDRFSGSGSGTDFTLKISRVEAEDVGVYYCLQLLEDPYTFGQGTKLEIKRTVAAPSVFIFPPSDEQLKSGTASVVCLLNNFYPREAKVQWKVDNALQSGNSQESVTEQDSKDSTYSLSSTLTLSKADYEKHKVYACEVTHQGLSSPVTKSFNRGEC
B3: binds [8].
